Reference: the supplement of paper PMC12217912
The list shows a part of the results. The full chains were built here from the parent and the listed change. Inactive controls read about 0.05.

B1: TEV protease; numbered along this chain (parent)
chain: MGESLFKGPRDYNPISSSICHLTNESDGHTTSLYGIGFGPFIITNKHLFRRNNGTLVVQSLHGVFKVKDTTTLQQHLVDGRDMIIIRMPKDFPPFPQKLKFREPQREERICLVTTNFQTKSMSSMVSDTSCTFPSGDGIFWKHWIQTKDGQCGSPLVSTRDGFIVGIHSASNFTNTNNYFTSVPKNFMELLTNQEAQQWVSGWRLNADSVLWGGHKVFMVKPEEPFQPVKEATQL

Variants of: B1
Assay: raw area under fraction-flipped curve 0-4 h after induction (AUC4h, not background-subtracted), DNA-recorder readout of cleavage of the substrate (dimensionless); higher = more cleavage of the substrate by the protease variant
Conditions: temperature: 34 °C; time window: 0-4 h after rhamnose induction
Method: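 In vivo DNA recorder in E. coli TOP10(DE3) ΔrhaA at 34 °C. Each TEVp single-site mutant (parent TEVp 0) is paired with a single-site variant of the 7-mer TEVs (canonical ENLYFQ|S). The substrate sits between flexible linkers in a Bxb1-sfGFP-TEVs-SsrA fusion, so cleavage stabilises Bxb1 and speeds flipping of a recombination array, read by NGS. The value is the raw area under the fraction-flipped curve over 0-4 h after rhamnose induction (AUC4h), with ≥20 reads per time point. It is not background-subtracted; inactive controls average about 0.047.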
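Also: Bxb1 expression induced with 0.2% (w/v) L-rhamnose at OD600 near 0.5, cultures sampled hourly, flipped fraction per protease–substrate barcode pair counted by paired-end Illumina sequencing.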

Variant	area with substrate EALYFQS	area with substrate ECLYFQS	area with substrate EDLYFQS	area with substrate EILYFQS	area with substrate EKLYFQS	area with substrate EPLYFQS	area with substrate EQLYFQS	area with substrate ERLYFQS	area with substrate ESLYFQS	area with substrate ETLYFQS	area with substrate EVLYFQS	area with substrate EWLYFQS	area with substrate EELYFQS	area with substrate EGLYFQS	area with substrate ELLYFQS	area with substrate EMLYFQS	area with substrate EYLYFQS	area with substrate EFLYFQS	area with substrate EHLYFQS
MGESLFKGPRDYNPISSSICHLTNESDGHTTSLYGIGFGPFIITNKHLFRRNNGTLVVQSLHGVFKVKDTTTLQQHLVDGRDMIIIRMPKDFPPFPQKLKQREPQREERICLVTTNFQTKSMSSMVSDTSCTFPSGDGIFWKHWIQTKDGQCGSPLVSTRDGFIVGIHSASNFTNTNNYFTSVPKNFMELLTNQEAQQWVSGWRLNADSVLWGGHKVFMVKPEEPFQPVKEATQL [F101Q]	0.0468	0.0493	0.0478	0.0405	0.0505	0.0421	0.0577	0.0436	0.0546	0.0438	0.054	0.049	–	–	–	–	–	–	–
MGESLFKGPRDYNPISSSICHLTNESDGHTTSLYGIGFGPFIITNKHLFRRNNGTLVVQSLHGVFKVKDTTTLQQHLVDGRDMIIIRMPKDFPPFPQKLTFREPQREERICLVTTNFQTKSMSSMVSDTSCTFPSGDGIFWKHWIQTKDGQCGSPLVSTRDGFIVGIHSASNFTNTNNYFTSVPKNFMELLTNQEAQQWVSGWRLNADSVLWGGHKVFMVKPEEPFQPVKEATQL [K100T]	0.117	0.109	–	0.115	0.127	–	0.115	–	0.106	0.12	0.14	–	0.0978	0.0776	0.0982	0.103	–	–	–
MGESLFKGPRDYNPISSSICHLTNESDGHTTSLYGIGFGPFIITNKHLFRRNNGTLVVQSLHGVFKVKDTTTLQQHLVDGRDMIIIRMPKDFPPFPQKLWFREPQREERICLVTTNFQTKSMSSMVSDTSCTFPSGDGIFWKHWIQTKDGQCGSPLVSTRDGFIVGIHSASNFTNTNNYFTSVPKNFMELLTNQEAQQWVSGWRLNADSVLWGGHKVFMVKPEEPFQPVKEATQL [K100W]	0.122	0.0764	–	0.0897	0.102	–	0.128	–	0.1	–	–	0.0985	0.113	0.0689	0.0898	0.106	0.103	–	–
MGESLFKGPRDYNPISSSICHLTNESDGHTTSLYGIGFGPFIITNKHLFRRNNGTLVVQSLHGVFKVKDTTTLQQHLVDGRDMIIIRMPKDFPPFPQKLNFREPQREERICLVTTNFQTKSMSSMVSDTSCTFPSGDGIFWKHWIQTKDGQCGSPLVSTRDGFIVGIHSASNFTNTNNYFTSVPKNFMELLTNQEAQQWVSGWRLNADSVLWGGHKVFMVKPEEPFQPVKEATQL [K100N]	0.0948	0.107	–	–	0.0951	0.188	0.143	–	–	–	–	0.0949	0.127	0.101	0.102	0.129	–	–	–
MGESLFKGPRDYNPISSSICHLTNESDGHTTSLYGIGFGPFIITNKHLFRRNNGTLVVQSLHGVFKVKDTTTLQQHLVDGRDMIIIRMPKDFPPFPQKLKFREPTREERICLVTTNFQTKSMSSMVSDTSCTFPSGDGIFWKHWIQTKDGQCGSPLVSTRDGFIVGIHSASNFTNTNNYFTSVPKNFMELLTNQEAQQWVSGWRLNADSVLWGGHKVFMVKPEEPFQPVKEATQL [Q105T]	0.125	0.105	0.121	–	–	–	0.0873	–	0.0787	–	0.0915	0.0789	–	–	0.0937	–	–	0.0981	–
MGESLFKGPRDYNPISSSICHLTNESDGHTTSLYGIGFGPFIITNKHLFRRNNGTLVVQSLHGVFKVKDTTTLQQHLVDGRDMIIIRMPKDFPPFPQKLKFREPNREERICLVTTNFQTKSMSSMVSDTSCTFPSGDGIFWKHWIQTKDGQCGSPLVSTRDGFIVGIHSASNFTNTNNYFTSVPKNFMELLTNQEAQQWVSGWRLNADSVLWGGHKVFMVKPEEPFQPVKEATQL [Q105N]	0.128	0.116	0.12	0.124	0.103	0.132	0.0914	0.0909	0.116	–	0.0935	0.0906	0.157	0.102	0.0748	0.118	0.0954	0.111	0.114
MGESLFKGPRDYNPISSSICHLTNESDGHTTSLYGIGFGPFIITNKHLFRRNNGTLVVQSLHGVFKVKDTTTLQQHLVDGRDMIIIRMPKDFPPFPQKLKFREPKREERICLVTTNFQTKSMSSMVSDTSCTFPSGDGIFWKHWIQTKDGQCGSPLVSTRDGFIVGIHSASNFTNTNNYFTSVPKNFMELLTNQEAQQWVSGWRLNADSVLWGGHKVFMVKPEEPFQPVKEATQL [Q105K]	0.0609	0.102	0.128	0.102	0.111	0.133	0.113	0.105	0.124	0.125	0.102	0.0862	0.134	0.117	0.109	0.116	–	0.118	0.117
MGESLFKGPRDYNPISSSICHLTNESDGHTTSLYGIGFGPFIITNKHLFRRNNGTLVVQSLHGVFKVKDTTTLQQHLVDGRDMIIIRMPKDFPPFPQKLKFRKPQREERICLVTTNFQTKSMSSMVSDTSCTFPSGDGIFWKHWIQTKDGQCGSPLVSTRDGFIVGIHSASNFTNTNNYFTSVPKNFMELLTNQEAQQWVSGWRLNADSVLWGGHKVFMVKPEEPFQPVKEATQL [E103K]	0.098	0.0894	0.0767	0.0699	–	0.0804	0.0867	0.0904	0.0907	–	–	0.0907	–	0.0811	–	–	0.101	–	0.0721
MGESLFKGPRDYNPISSSICHLTNESDGHTTSLYGIGFGPFIITNKHLFRRNNGTLVVQSLHGVFKVKDTTTLQQHLVDGRDMIIIRMPKDFPPSPQKLKFREPQREERICLVTTNFQTKSMSSMVSDTSCTFPSGDGIFWKHWIQTKDGQCGSPLVSTRDGFIVGIHSASNFTNTNNYFTSVPKNFMELLTNQEAQQWVSGWRLNADSVLWGGHKVFMVKPEEPFQPVKEATQL [F95S]	0.108	0.108	–	0.0853	0.0901	0.005	0.0806	0.0808	0.0736	0.102	0.0951	0.0729	0.0945	0.0577	0.0883	0.0943	–	0.0814	–
